Test [1] addresses T1, ASPP2 Ank-SH3 (ASPP2 893–1128) (UniProt Q13625 893-1128).
T1 construct: ASPP2, four ankyrin repeats and SH3 domain, residues 893-1128
T1 sequence (looked up): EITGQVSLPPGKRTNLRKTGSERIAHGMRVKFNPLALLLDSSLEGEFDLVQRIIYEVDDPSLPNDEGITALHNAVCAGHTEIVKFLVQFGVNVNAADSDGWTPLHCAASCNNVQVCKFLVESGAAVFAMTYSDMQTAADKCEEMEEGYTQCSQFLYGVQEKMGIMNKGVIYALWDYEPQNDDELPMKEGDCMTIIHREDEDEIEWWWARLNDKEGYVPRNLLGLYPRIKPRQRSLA
Description: fluorescence polarisation; fluorescence anisotropy competition; p53CD titrated into the fully formed complex of ASPP2 Ank-SH3 and Fl-NFκB 303–332; IS = 150 mM. Particulars: both partners purified.

Test [2] has as its target T1, ASPP2 Ank-SH3 (ASPP2 893–1128). Description: fluorescence polarisation; fluorescence anisotropy competition; p53CD added to a mixture of 83 nM Fl-ASPP2 722–737 and 8.3 µM ASPP2 Ank-SH3; 20 mM Hepes pH 7.0, IS = 50 mM, 5 mM βME. To be noted: both partners purified. In general terms: In fluorescence polarisation assays a small probe gives low polarisation when free and higher when bound to something large.

Usually Kd stands for the equilibrium constant for the complex coming apart.

B1: p53 core domain (p53 […]) (domain or fragment)
chain: not shown
notes: No tag is named; the purification used ion exchange, heparin and gel filtration only; also called p53CD; p53CD […]; source: E. coli C41 (DE3), purified (HiTrap SP cation exchange, HiTrap heparin, Superdex 75 gel filtration)
With B1, the Kd came out at 2450 nM in test [1] and 470 nM in test [2].

The values are drawn from article PMC3589414, “Regulation of ASPP2 Interaction with p53 Core Domain by an Intramolecular Autoinhibitory Mechanism” (PLoS ONE, 2013).
